# Experimental data reported in the supplement of paper PMC8183993.
# Structures can show the parent of a compound that is named as a salt. ± gives the standard deviation of the averaged measurements. In all, about 3,100 compounds were measured (“mean cytoplasmic OPP incorporation (global translation) relative to DMSO”: median about 100, lowest 2% from about 56 on). This is one part of the list.
# System: U2OS
# Assay: mean cytoplasmic OPP incorporation (global translation) relative to DMSO (% of DMSO); higher = more protein synthesis
# Conditions: 10 µM; 24 h
# Description: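 Primary image-based screen in U2OS cells: compounds at 10 uM for 24 h, then a 1 h o-propargyl-puromycin (OPP) pulse, click labelling, and high-throughput microscopy. Mean cytoplasmic OPP intensity and nuclei count were normalised to DMSO wells within each plate (DMSO = 100) and averaged over triplicate plates.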
row,SMILES,mean cytoplasmic OPP incorporation
1,CC[C@@H](CO)NC(=O)[C@@H]1C=C2c3cccc4c3c(cn4C)C[C@H]2N(C)C1 [Methysergide maleate],101
2,N#C[C@H](O[C@@H]1O[C@H](CO[C@@H]2O[C@H](CO)[C@@H](O)[C@H](O)[C@H]2O)[C@@H](O)[C@H](O)[C@H]1O)c1ccccc1 [Amygdalin],108
3,"CC(=O)N1CC[N+](C)(C)CC1 [4-Acetyl-1,1-dimethylpiperazinium iodide]",100
4,C[C@]12CC[C@H](O)CC1=CC[C@@H]1[C@@H]2CC[C@]2(C)C(=O)CC[C@@H]12 [Dehydroepiandrosterone (DHEA)],99.4
5,c1ccc2c(c1)OCC(C1=NCCN1)O2 (configuration not stated) [Idazoxan hydrochloride],96.7 ± 2.7
6,CCCCCC[C@H]1C(=O)O[C@H](C)[C@H](NC(=O)c2cccc(NC=O)c2O)C(=O)O[C@@H](C)[C@@H]1OC(=O)CC(C)C [Antimycin A],73.8
7,"c1ccc(C2CNCc3ccccc32)cc1 (configuration not stated) [4-Phenyl-1,2,3,4-tetrahydroisoquinoline hydrochloride]",98.4
8,NC(C(=O)O)c1nn[nH]n1 (racemic) [(RS)-(Tetrazol-5-yl)glycine],102
9,COc1ccc(CC2NCCc3cc(OC)c(OC)cc32)cc1OC (configuration not stated) [Tetrahydropapaverine HCl],107
10,CC[N+]1(C)CCCC(OC(=O)C(O)(c2ccccc2)c2ccccc2)C1 (configuration not stated) [Pipenzolate bromide],100
11,C/C=C(/C)C(=O)O[C@H]1C(C)=C2[C@H]([C@@H]1OC(=O)CCCCCCC)[C@@](C)(OC(C)=O)C[C@H](OC(=O)CCC)[C@@]1(O)[C@H]2OC(=O)[C@@]1(C)O [Thapsigargin],95 ± 39
12,COC1(C[S@+]([O-])c2ccccc2)CCN(CCc2c[nH]c3ccc(F)cc23)CC1,101
13,Cc1nnc2n1-c1sc(CCC(=O)N3CCOCC3)cc1C(c1ccccc1Cl)=NC2,100
14,c1ccc([C@@H]2C[C@H]2NC2CCNCC2)cc1,99.8
15,CCC[C@@H]1CC2=CC(=O)CC[C@]2(C)[C@H]2CC[C@@]3(C)[C@@H](CC[C@@]3(O)CCC(=O)O)[C@H]12,96.1
16,CCOC(=O)c1ncn2c1CN(C)C(=O)c1cc(N=[N+]=[N-])ccc1-2,91.9
17,CCCN1CCO[C@@H]2c3cc(O)ccc3OC[C@H]21,97.1
18,C[C@]12COC(=O)C[C@@H]1CC[C@@H]1[C@@H]2CC[C@@]2(C)[C@H]1CC[C@]2(C)O [Oxandrolone],101
19,O=P1(N(CCCl)CCCl)NCCCO1 (configuration not stated) [Cyclophosphamide],99
20,CCCN[C@@H]1CCc2c(OC)cccc2[C@@H]1C [(+)-AJ 76 hydrochloride],107
21,CN1C(=O)CCS(=O)(=O)C1c1ccc(Cl)cc1 (configuration not stated) [Chlormezanone],103 ± 3.1
22,Cn1c2c(c3ccccc31)CCNCC2,97.4
23,CC(=O)[C@H]1CC[C@H]2[C@@H]3CC[C@H]4C[C@H](O)CC[C@]4(C)[C@H]3C(=O)C[C@]12C [Alfaxalone],102
24,C=C1C[C@@H]2[C@H](CC[C@]3(C)C(=O)CC[C@@H]23)[C@@]2(C)C=CC(=O)C=C12 [Exemestane],87.62 ± 0.59
25,CC1=NN=C(c2ccc(N)cc2)c2cc3c(cc2C1)OCO3,110
26,C[C@H]1CNCCc2ccc(Cl)cc21 [Lorcaserin HCl],99.4

row,SMILES,mean cytoplasmic OPP incorporation
1,C/C(O)=C(\C#N)C(=O)Nc1cc(Br)ccc1Br,90.7
2,Cc1ccccc1-n1c(Cn2ncc3c(N)ncnc32)nc2cccc(C)c2c1=O,104
3,CCC1(C)CC(=O)NC(=O)C1 [Bemegride],102
4,C[C@@]12C(=O)OC(=O)[C@]1(C)[C@H]1CC[C@@H]2O1 [Cantharidin],93.1 ± 5.2
5,CCCC(C)(COC(N)=O)COC(=O)NC(C)C (configuration not stated) [Carisoprodol],97.1
6,Cc1ccc2c(c1)C1(CCN(CCc3nc(-c4ccccc4)oc3C)CC1)OC(=O)N2,93.4
7,C[C@]12CCC(=O)C=C1CC[C@@H]1[C@@H]2CC[C@]2(C)C(=O)CC[C@@H]12 [Androstenedione],97
8,OC(c1ccccc1)(c1ccccc1)C1CCNCC1 [Azacyclonol],96
9,N[C@@H]1C[C@H]1c1ccccc1.N[C@H]1C[C@@H]1c1ccccc1 [Tranylcypromine hemisulfate],120
10,N=C(NCc1ccc(Cl)cc1)SCCCc1c[nH]cn1 [Clobenpropit dihydrobromide],95.4
11,COc1cc(OC)c(OC)cc1C=O [Asaraldehyde (Asaronaldehyde)],99.3
12,C[N+]1(C)CCCC(OC(=O)C(O)(c2ccccc2)c2ccccc2)C1 (configuration not stated) [Mepenzolate bromide],95.8
13,COc1cc(N)c(Cl)cc1C(=O)NC1CN2CCC1CC2 (configuration not stated) [Zacopride hydrochloride],104
14,c1ccc2sc(C3(N4CCCCC4)CCCCC3)cc2c1 [BTCP maleate],109
15,C[C@@H]1CN([C@H]2CC[C@](C#N)(c3ccc(F)cc3)CC2)CC[C@]1(C(=O)O)c1ccccc1 [Levocabastine hydrochloride],98.1
16,C(=C\c1ccccc1)/CN1CCN(CCOC(c2ccccc2)c2ccccc2)CC1,98.5
17,C=CCC1(CC(C)C)C(=O)NC(=O)NC1=O [Butalbital],99.9
18,O=C1C2CCN(CC2)C1(CO)CO,97.1
19,O=C(CCCN1CCC(n2c(=O)[nH]c3ccccc32)CC1)c1ccc(F)cc1 [Benperidol],110
20,"C=CCN1CC[C@]2(C)c3cc(O)ccc3C[C@H]1C2C (single isomer, unassigned; (+))",105
21,Cc1sc2c(c1C)C(c1ccc(Cl)cc1)=N[C@@H](CC(=O)OC(C)(C)C)c1nnc(C)n1-2,103
22,COc1ccc(OC)c(C(O)C(C)N)c1 (configuration not stated) [Methoxamine hydrochloride],97.2
23,Ic1cncc(OC[C@@H]2CCN2)c1,97.5
24,CCOc1cncc(/C=C/CCNC)c1 [TC 2559 difumarate],97.5
25,CCC(=O)O[C@H]1CC[C@H]2[C@@H]3CCC4=CC(=O)CC[C@]4(C)[C@H]3CC[C@]12C [Testosterone propionate],98.3
26,CC1OC(OC2/C=C/C=C/C=C/C=C/CC/C=C/C=C/[C@H](C)[C@@H](O)[C@@H](C)[C@H](C)OC(=O)CC(O)CC(O)CC(O)CCC(O)C(O)C[C@]3(O)CC(O)C(C(=O)O)C(C2)O3)C(O)C(N)C1O (some centres not stated) [Nystatine],106

row,SMILES,mean cytoplasmic OPP incorporation
1,CN1CCN(c2ccc3ccccc3n2)CC1 [N-Methylquipazine dimaleate],97.4
2,NCCCNCCSP(=O)(O)O [Amifostine],90.7
3,"Clc1ccc(N2CCN(Cc3c[nH]c4ncccc34)CC2)cc1 [L-745,870 trihydrochloride]",104
4,O=C(CCCN1CCC2(CC1)C(=O)N(Cc1cccc(F)c1)CN2c1ccccc1)c1ccc(F)cc1 [3'-Fluorobenzylspiperone maleate],122
5,CCN(CC)C(=O)c1ccc(C2=CC3(CCNCC3)Oc3cccc(O)c32)cc1,110
6,NCCc1c[nH]c2ccc(C(N)=O)cc12 [5-Carboxamidotryptamine maleate],99.2
7,O=c1[nH]c2ccc(Cl)cc2c(N[C@@H]2CN3CCC2CC3)c1-c1nc2ccccc2[nH]1,56.6 ± 4
8,CC1(C)[C@@H](O)C[C@H]2[C@](C)(O)[C@@H]3CC[C@@H]4[C@@H](O)[C@@]3(C[C@@H](O)[C@@]21O)C[C@@]4(C)O [Grayanotoxin III],102
9,FC(F)(F)c1cccc(C2=CCN(CCc3ccc4ccccc4c3)CC2)c1 [Xaliproden hydrochloride],102
10,O=c1ccc2[nH]cc(C3=CCNCC3)c2[nH]1,98.3
11,O=C(O)/C=C/CO [trans-4-Hydroxycrotonic acid],105
12,Cc1cc2c(C(C)C)c(O)c(O)c(C=O)c2c(O)c1-c1c(C)cc2c(C(C)C)c(O)c(O)c(C=O)c2c1O [Gossypol],91.6 ± 2.5
13,CC(C)(OO)c1ccccc1 [Cumene hydroperoxide],98.2
14,O=c1[nH]c2ccccc2n1C1CCN(CCCC(c2ccc(F)cc2)c2ccc(F)cc2)CC1 [Pimozide],111 ± 3.8
15,CC1=C2C[C@H]3[C@@H](CC=C4C[C@@H](O)CC[C@@]43C)[C@@H]2CC[C@]12O[C@@H]1C[C@H](C)CN[C@H]1[C@H]2C [Cyclopamine],101
16,CC(=O)NCCc1c[nH]c2ccccc12 [N-Acetyltryptamine],101
17,CCN1CC2(OC(=O)c3ccccc3NC(C)=O)CCC(OC)C34C1C(CC23)C1(O)CC(OC)C2CC4C1(O)C2OC (configuration not stated) [Lappaconite HBr],109
18,N[C@H](C(=O)O)c1cc(O)no1 [Ibotenic acid],97.4
19,C[C@]12CC[C@@H](O)C[C@H]1CC[C@@H]1[C@@H]2CC[C@]2(C)C(=O)CC[C@@H]12 [3-alpha-Hydroxy-5-beta-androstan-17-one],89.8
20,C#CCN(C)[C@H](C)Cc1ccccc1 [Selegiline hydrochloride],102
21,COc1cc(C(=O)N2CC[C@@H](O)[C@@H](N)C2)cc2nc(-c3cc4ccccc4n3CC3CC3)n(C)c12,110
22,CN1CCN(c2nc3ccccc3nc2Cl)CC1,95.9
23,CN(C)C(=O)Oc1ccc[n+](C)c1 [Pyridostigmine iodide],104
24,C[C@@H]1O[C@@H](O[C@@H]2C=C3CC[C@@H]4[C@H](CC[C@]5(C)[C@@H](c6ccc(=O)oc6)CC[C@]45O)[C@@]3(C)CC2)[C@H](O)[C@H](O)[C@H]1O [Proscillaridin A],17.5
25,CNC(=O)Oc1ccc2c(c1)[C@]1(C)CCN(C)[C@@H]1N2C [Eserine hemisulfate salt],101
